Test results reported in the supplement of paper PMC4466236.
Over roughly 33,000 sequences, “E-score (dimensionless, -0.5 to 0.5)” has its median near -0.058; the highest 2% begin near 0.35. The list shows a part of the results.

Tested on: MvaT
Assay: PBM 8-mer E-score (mean of HK and ME arrays) (E-score (dimensionless, -0.5 to 0.5)); higher = stronger relative binding preference; most listed sequences are background and not binding sites
Summary of the method: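 Full-length P. aeruginosa MvaT, with glutathione S-transferase fused to its N-terminus (cloned into pTH6838 by isothermal assembly), was tested by protein binding microarray using a previously described protocol. Two universal double-stranded 60-mer arrays (ME and HK) were used, each with a constant 25-mer primer region and a variable 35-mer region covering all 8-mers. The rank-based 8-mer E-score (-0.5 to 0.5) is the mean of the two arrays, parsed with a custom Python script.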

Sequence	PBM 8-mer E-score
GACTCCAC	-0.0919
ACTCTTTG	0.0293
CCAACCAC	-0.123
AACTCACA	0.0884
TCGGGCCA	-0.231
ACAGGGGT	-0.121
AGCAGCAA	-0.0844
GGGCGGGA	-0.214
AGCGTTTG	0.0257
CGGAGTGC	-0.169
ACCAACAC	0.0519
CCGTCCAA	-0.136
GCAGGCAC	-0.273
ACGACCGT	-0.176
AGGATCGC	-0.241
CGAGTACA	0.0588
CGCCCCAA	-0.115
GCTGTCCC	-0.209
CGTTTCTC	-0.096
AGCGTGCC	-0.322
ACTGGCTA	-0.0991
CTCAGTAC	-0.097
GAGTTCCA	-0.16
CAACAAGA	0.176
AGGACCAA	-0.206

Sequence	PBM 8-mer E-score
AACTCCAA	0.118
CATAAAAG	0.159
CCACCTAC	-0.148
AGATAGGA	-0.071
ACATCGAA	0.154
AGGAGTAG	-0.19
ACTTACAT	0.343
AGAAACAC	0.052
CCCGCTAC	-0.247
CCTCTGTC	-0.129
CACGTAAA	-0.0431
AAAAGGAT	0.0697
GACGTCAC	-0.19
ACCATAAC	0.196
CGTAGGAA	-0.131
ACAGCCGT	-0.211
AGACCTGG	-0.207
TCATTAGA	0.0266
ATTACTAC	0.261
TCGCGCCA	-0.125
ATTAGCAG	0.201
AGTTTCGA	0.193
CCATTGGC	-0.3
ATGGATGG	-0.109
CGGCTCGA	-0.188

Sequence	PBM 8-mer E-score
TCTAGTAA	0.0881
CATCCTGG	-0.174
ATTACCGG	0.0376
GCTAGCGA	-0.181
ACGGAGAC	-0.0662
GATTAACA	0.278
ACAAAGCG	-0.0812
GGCGTATA	0.0954
ACCGAACC	-0.085
ATGCTAGA	0.0338
AAGTTATA	0.442
AACGAAAA	0.105
AACGAGAA	5.73e-05
CTTACGTA	-0.0291
CTAACTCC	0.0568
TTATCGAA	0.22
ATCGTAGA	-0.126
TAGTCGGA	-0.0242
ATAAGAAA	0.24
ACTAACCG	-0.072
ACCCGAGT	-0.153
AACTTTCC	0.315
TACCTACA	0.0674
ACTCGGGC	-0.223
ATGATGTA	0.168

Sequence	PBM 8-mer E-score
AGCACATA	0.14
ATTTCCCC	0.0663
GATGCACA	0.00969
GTTGTCGA	0.00974
GGTATTTA	0.27
AAAAGAAG	0.0172
ACGGACCG	-0.239
GAACTTGA	0.266
ATGCTTTC	-0.146
CTAACCGC	-0.111
CCGGAGAG	-0.196
AGGTGGTG	-0.0424
CTATAGAA	0.103
GATGATCC	-0.00943
GCGGGAAC	-0.274
AACCTCCA	-0.115
GACTGCGA	-0.115
GATGGTGA	-0.0523
CCCACCAC	-0.143
ACCGCCTG	-0.238
ATCTACCA	0.122
GAGTGACA	-0.172
GAGGACTA	-0.228
CTAACGTC	-0.213
CGCTGGAG	-0.194

Sequence	PBM 8-mer E-score
CACGAACG	-0.246
ATGCCTAA	0.00896
AAGAAGCG	-0.0282
CGATTCAC	-0.0249
AACTGGAC	0.0417
ATACGCAA	0.107
ACTGGGGA	-0.123
AGTCTTGA	-0.0451
AGGACACG	-0.309
AATTATCA	0.325
CCGGGCTC	-0.267
ACGCCAAG	-0.228
GAACGAGC	-0.255
AGGGTCGC	-0.264
AATAAGCA	0.251
AGGGATAG	-0.216
AGATCGGC	-0.141
CTAGTTCA	0.0957
ATTTAGAC	0.125
GCGCGTAA	0.0794
TACTGATA	0.185
AGTCACAC	-0.0915
CTTTTTGC	0.0809
AGATGTAG	0.0855
GCAGCGTA	-0.0147

Sequence	PBM 8-mer E-score
AAAGGCCT	-0.233
AAAGAACC	0.108
CTGACCGA	-0.113
GCTCTCCA	-0.273
AACTTTCA	0.351
AGAAAGAA	0.073
GCTGCTGA	-0.12
AGGTGCGA	-0.0523
AACCCCCG	-0.297
AACCCCAG	-0.189
AACTGCGA	0.0683
ATTTTTCC	0.0867
CTGGAAGA	-0.00863
CCAACGCC	-0.167
ATTGCAAC	0.102
AAACCGGG	-0.183
TAGATAGA	0.188
TCATTCGA	-0.0454
CAAGCTGG	-0.17
AGCTAAAG	-0.183
GGCTGCGA	-0.254
CAGTCCGC	-0.193
CACCGTGG	-0.246
AAACCTTA	0.175
AAACTATA	0.334

Sequence	PBM 8-mer E-score
ACTACGTG	-0.0922
CATCAAAG	-0.0265
ATGCGAGA	-0.0612
ACGACGCC	-0.263
CAAATACC	0.197
CCGCTGCC	-0.297
GGTAGTTA	0.212
ACGCTGGG	-0.144
CGGCGGGC	-0.219
GTGATTCA	0.0125
CGATGGAG	-0.147
CGTACGAC	-0.239
CAGATCAC	-0.0846
GGAGTCGA	-0.193
CGTAATTA	0.31
ATGGACGG	-0.147
AGGCAAGG	-0.222
CGGCAGGC	-0.255
ACATATAC	0.287
ACTGGGAT	-0.00488
AGATGAGC	-0.114
TATGTAGA	0.184
